{"source": "the GPR68 mutational scans of Howard et al. (2025)", "parents": {"B1": {"name": "GPR68, Q15743 (parent)", "chain": "MGNITADNSSMSCTIDHTIHQTLAPVVYVTVLVVGFPANCLSLYFGYLQIKARNELGVYLCNLTVADLFYICSLPFWLQYVLQHDNWSHGDLSCQVCGILLYENIYISVGFLCCISVDRYLAVAHPFRFHQFRTLKAAVGVSVVIWAKELLTSIYFLMHEEVIEDENQHRVCFEHYPIQAWQRAINYYRFLVGFLFPICLLLASYQGILRAVRRSHGTQKSRKDQIQRLVLSTVVIFLACFLPYHVLLLVRSVWEASCDFAKGVFNAYHFSLLLTSFNCVADPVLYCFVSETTHRDLARLRGACLAFLTCSRTGRAREAYPLGAPEASGKSGAQGEEPELLTKLHPAFQTPNSPGSGGFPTGRLA"}}, "key": {"[1]": {"variants_of": "B1", "experiment": "cAMP reporter score (Enrich2 score, wild type = 0); higher = more signal; HEK293T, FACS bins"}, "[2]": {"variants_of": "B1", "experiment": "surface expression score (Enrich2 score, wild type = 0); higher = more signal; HEK293T, FACS bins"}}, "note": "The least precise scores are not listed. Not listed are two conditions whose scores span a narrow range. Read del as a deletion of the residues named and ins as an insertion between two positions. For some of these results: The data file names ogerin without a concentration."}
{"variant": "MGNITADNSSMSCTIDHTIHQTLAPVVYVTVLVVGFPANCLSPYFGYLQIKARNELGVYLCNLTVADLFYICSLPFWLQYVLQHDNWSHGDLSCQVCGILLYENIYISVGFLCCISVDRYLAVAHPFRFHQFRTLKAAVGVSVVIWAKELLTSIYFLMHEEVIEDENQHRVCFEHYPIQAWQRAINYYRFLVGFLFPICLLLASYQGILRAVRRSHGTQKSRKDQIQRLVLSTVVIFLACFLPYHVLLLVRSVWEASCDFAKGVFNAYHFSLLLTSFNCVADPVLYCFVSETTHRDLARLRGACLAFLTCSRTGRAREAYPLGAPEASGKSGAQGEEPELLTKLHPAFQTPNSPGSGGFPTGRLA", "note": "[L43P]", "values": [{"measurement": "cAMP reporter score", "setting": "[1]; pH 5.5", "result": -1.49}, {"measurement": "cAMP reporter score", "setting": "[1]; pH 6", "result": -0.486}, {"measurement": "cAMP reporter score", "setting": "[1]; pH 6, modulator: ogerin", "result": -0.313}, {"measurement": "cAMP reporter score", "setting": "[1]; pH 6.5, modulator: ogerin", "result": -0.978}, {"measurement": "surface expression score", "setting": "[2]", "result": -2.38}]}
{"variant": "MGNITADNSSMSCTIDHTIHQTLAPVVYVTVLVVGFPANCLSSYFGYLQIKARNELGVYLCNLTVADLFYICSLPFWLQYVLQHDNWSHGDLSCQVCGILLYENIYISVGFLCCISVDRYLAVAHPFRFHQFRTLKAAVGVSVVIWAKELLTSIYFLMHEEVIEDENQHRVCFEHYPIQAWQRAINYYRFLVGFLFPICLLLASYQGILRAVRRSHGTQKSRKDQIQRLVLSTVVIFLACFLPYHVLLLVRSVWEASCDFAKGVFNAYHFSLLLTSFNCVADPVLYCFVSETTHRDLARLRGACLAFLTCSRTGRAREAYPLGAPEASGKSGAQGEEPELLTKLHPAFQTPNSPGSGGFPTGRLA", "note": "[L43S]", "values": [{"measurement": "cAMP reporter score", "setting": "[1]; pH 5.5", "result": -0.843}, {"measurement": "cAMP reporter score", "setting": "[1]; pH 6", "result": -0.065}, {"measurement": "cAMP reporter score", "setting": "[1]; pH 6, modulator: ogerin", "result": -1.41}, {"measurement": "cAMP reporter score", "setting": "[1]; pH 6.5, modulator: ogerin", "result": -0.874}, {"measurement": "surface expression score", "setting": "[2]", "result": -2.22}]}
{"variant": "MGNITADNSSMSCTIDHTIHQTLAPVVYVTVLVVGFPANCLSQYFGYLQIKARNELGVYLCNLTVADLFYICSLPFWLQYVLQHDNWSHGDLSCQVCGILLYENIYISVGFLCCISVDRYLAVAHPFRFHQFRTLKAAVGVSVVIWAKELLTSIYFLMHEEVIEDENQHRVCFEHYPIQAWQRAINYYRFLVGFLFPICLLLASYQGILRAVRRSHGTQKSRKDQIQRLVLSTVVIFLACFLPYHVLLLVRSVWEASCDFAKGVFNAYHFSLLLTSFNCVADPVLYCFVSETTHRDLARLRGACLAFLTCSRTGRAREAYPLGAPEASGKSGAQGEEPELLTKLHPAFQTPNSPGSGGFPTGRLA", "note": "[L43Q]", "values": [{"measurement": "cAMP reporter score", "setting": "[1]; pH 5.5", "result": -1.21}, {"measurement": "cAMP reporter score", "setting": "[1]; pH 6", "result": -0.821}, {"measurement": "cAMP reporter score", "setting": "[1]; pH 6.5, modulator: ogerin", "result": -0.57}, {"measurement": "surface expression score", "setting": "[2]", "result": -3.68}]}
{"variant": "MGNITADNSSMSCTIDHTIHQTLAPVVYVTVLVVGFPANCLSRYFGYLQIKARNELGVYLCNLTVADLFYICSLPFWLQYVLQHDNWSHGDLSCQVCGILLYENIYISVGFLCCISVDRYLAVAHPFRFHQFRTLKAAVGVSVVIWAKELLTSIYFLMHEEVIEDENQHRVCFEHYPIQAWQRAINYYRFLVGFLFPICLLLASYQGILRAVRRSHGTQKSRKDQIQRLVLSTVVIFLACFLPYHVLLLVRSVWEASCDFAKGVFNAYHFSLLLTSFNCVADPVLYCFVSETTHRDLARLRGACLAFLTCSRTGRAREAYPLGAPEASGKSGAQGEEPELLTKLHPAFQTPNSPGSGGFPTGRLA", "note": "[L43R]", "values": [{"measurement": "cAMP reporter score", "setting": "[1]; pH 5.5", "result": -1.55}, {"measurement": "cAMP reporter score", "setting": "[1]; pH 6", "result": -0.527}, {"measurement": "cAMP reporter score", "setting": "[1]; pH 6, modulator: ogerin", "result": -1.41}, {"measurement": "cAMP reporter score", "setting": "[1]; pH 6.5, modulator: ogerin", "result": -0.676}, {"measurement": "surface expression score", "setting": "[2]", "result": -3.02}]}
